In all, about 110,000 compounds were measured (“z-score”: median about -0.1, highest 2% from about 2 on). The list shows a part of the results. Active and inactive are the calls of the source.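 The calls were made as follows: active = z-score in the third read window above 3 or below -3; inactive = the rest.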
biological target: Metabotropic glutamate receptor 8 (Rattus norvegicus) (UniProt P70579); assay: mGluR8 Gi/Go-coupled signaling modulation – cell-based, rat, thallium flux, HTS, primary screen (AID 488969); conditions: HEK293 rat mGluR8, GIRK (G protein-gated inwardly rectifying potassium channel) thallium flux, FluoZin2; at 10 µM; stronger effect = higher value; submaximal glutamate (EC20) added with thallium
Chain of UniProt P70579 (P70579 whole entry, looked up): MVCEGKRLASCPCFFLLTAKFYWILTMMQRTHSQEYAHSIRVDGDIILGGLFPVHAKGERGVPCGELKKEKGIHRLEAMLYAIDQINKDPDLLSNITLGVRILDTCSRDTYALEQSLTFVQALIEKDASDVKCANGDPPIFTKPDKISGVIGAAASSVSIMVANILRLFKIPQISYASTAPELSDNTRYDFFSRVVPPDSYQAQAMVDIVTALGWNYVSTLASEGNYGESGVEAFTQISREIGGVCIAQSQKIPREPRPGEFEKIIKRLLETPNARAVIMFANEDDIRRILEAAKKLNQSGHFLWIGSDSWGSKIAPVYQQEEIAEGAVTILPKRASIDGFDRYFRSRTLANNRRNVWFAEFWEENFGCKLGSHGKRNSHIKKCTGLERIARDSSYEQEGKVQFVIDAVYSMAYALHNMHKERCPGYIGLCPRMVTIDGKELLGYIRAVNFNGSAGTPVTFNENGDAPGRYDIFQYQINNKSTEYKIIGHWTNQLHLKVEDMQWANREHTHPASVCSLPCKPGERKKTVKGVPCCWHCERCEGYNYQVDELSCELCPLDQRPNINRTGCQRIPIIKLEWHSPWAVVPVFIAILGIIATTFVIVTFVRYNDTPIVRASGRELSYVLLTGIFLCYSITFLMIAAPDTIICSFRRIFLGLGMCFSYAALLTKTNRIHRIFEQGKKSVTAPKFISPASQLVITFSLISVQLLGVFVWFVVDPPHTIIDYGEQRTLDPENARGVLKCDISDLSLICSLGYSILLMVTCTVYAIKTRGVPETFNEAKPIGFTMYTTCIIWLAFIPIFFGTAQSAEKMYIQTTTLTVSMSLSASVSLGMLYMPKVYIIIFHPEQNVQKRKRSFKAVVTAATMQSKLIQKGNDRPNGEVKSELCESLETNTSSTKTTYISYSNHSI

SMILES	z-score
Cc1ccc(-n2c(SCC(=O)Nc3ccc4c5c(cccc35)CC4)nc(O)c(C)c2=O)cc1	-0.384
CCN(C(=O)CN(C)Cc1c(F)cccc1Cl)c1c(N)n(Cc2ccccc2)c(=O)[nH]c1=O	-0.186
CC(=O)N1C(=O)C2(Nc3ccccc3N2)c2ccccc21	-0.647
O=S(=O)(Nc1cccnc1)c1ccc2c(c1)OCCO2	-0.833
Cc1cccnc1NC(=O)COc1ccc2oc3c(c2c1)CCCC3	0.188
Cc1c(-c2nnc(-c3ccc(C(F)(F)F)cc3)o2)cnn1-c1ccccc1	-0.209
O=C(CCCN1C(=O)c2ccccc2C1=O)Nc1nccs1	-0.252
C/C(=N\O)c1ccc(N2C(=O)C3CC=C(Cl)CC3C2=O)cc1 (stereo unspecified)	-0.163
O=C(CC(=O)NN=C1CCCC1)NCCc1ccccc1	-0.161
Cc1ccc(C(=O)NC(C)c2ccccc2)o1 (stereo unspecified)	-0.0546
CCCCNC(=S)NC(=O)c1ccc([N+](=O)[O-])cc1	active: 7.01
COc1cccc(OC)c1C(=O)NC(=S)Nc1cc(-c2nc3ccccc3[nH]2)ccc1Cl	-0.117
O=C(O)CCc1ccc(-c2ccc(Cl)cc2)n1CC(=O)O	-0.246
C/C(Cn1nnc([N+](=O)[O-])n1)=N\NC(=O)c1ccc(O)cc1O	-0.179
CS(=O)(=O)Nc1ccc(S(=O)(=O)NCCc2ccccc2)cc1	0.726
CCC(=O)Nc1cccc(NC(=O)CSc2nnnn2C)c1	-0.103
Cc1nc2ncnn2c(C)c1CCC(=O)Nc1ccc(S(=O)(=O)N2CCCCCC2)cc1	-1.77
CSC1=NC2(CC(c3ccccc3)Oc3cc(O)ccc32)CC(C)(C)N1 (stereo unspecified)	0.359
O=C(COc1cccc(NC(=O)c2cccs2)c1)c1ccc(F)cc1	-0.182
c1cc2c3c(cccc3c1)C(N1CCN(C3=Nc4cccc5cccc3c45)CC1)=N2	-0.0313
COc1ccc(S(=O)(=O)Nc2ccccc2OC)cc1NC(=O)CC1CC2CCC1C2 (stereo unspecified)	-0.0236
Cc1nnc(SCC(=O)Nc2c(Cl)cccc2Cl)[nH]c1=O	0.127
O=c1[nH]c(=S)c2c(n1-c1ccccc1)CCC2	-0.521
O=c1cc(CO)oc(CN2CCN(Cc3ccccc3)CC2)c1O	0.187

SMILES	z-score
Cc1cc(OCC(=O)Nc2ccc(S(=O)(=O)N3CCN(C)CC3)cc2)ccc1Cl	0.553
CC(=O)c1ccc(OC(=O)C2c3ccccc3Oc3ccccc32)cc1	-0.187
O=C(N/N=C\c1ccc(F)cc1)c1csnn1	-0.00941
CCC(CC)=NNc1cccc([N+](=O)[O-])c1	0.023
O=C(Nc1ccc([N+](=O)[O-])cc1)/C(=C/c1cccc([N+](=O)[O-])c1)NC(=O)C1CCCCC1	0.117
COc1ccc(S(=O)(=O)NCCc2ccc(F)cc2)cc1	-0.512
COc1ccc(NC2=NC3(CCCCC3)N=C(N)N2)cc1	0.282
O=C1c2ccccc2C(Nc2ccc3c(c2)OCCO3)N1Cc1ccc2c(c1)OCO2 (stereo unspecified)	-0.879
COc1ccc(-c2nc3ccccc3s2)cc1O	-0.728
COc1nn(CC(=O)N2N=C(C(F)F)CC2(O)C(F)F)cc1[N+](=O)[O-] (stereo unspecified)	-0.324
COc1cccc(NC(=O)N2CCCC2C(=O)NC(C)C)c1 (stereo unspecified)	-0.0288
CCCS(=O)(=O)N1CCC(C(=O)NC2CCC(C)CC2)CC1 (stereo unspecified)	0.123
COc1ccc(Cl)cc1N=Cc1c(O)cc(C)oc1=O	-0.363
Cc1nn(C)c(C)c1CN(C)C(=O)C1c2ccccc2Oc2ccccc21	0.0898
Cc1cc(C(=O)OCC(=O)NC(C)C)c(C)o1	-0.115
Cn1c(CN2CCOCC2)nnc1SCc1ccccc1	0.624
Cc1ccc(/C=C/C(=O)Nc2ccccc2C(N)=O)cc1	-0.124
COc1ccc2[nH]c3c(N4CCN(Cc5ccc6c(c5)OCO6)CC4)ncnc3c2c1	-0.212
Cn1c2c(c(=O)n(C)c1=O)C1c3cc(Cl)ccc3OCC1CO2 (stereo unspecified)	0.315
CCc1ccc2c(c1)C(C)=CC(C)(C)N2	-0.05
Cc1ccc(S(=O)(=O)NCc2cccnc2)s1	-0.152
CC(C)(C)C(=O)Nc1ccc(C(=O)N/N=C/c2ccccc2OC(=O)c2ccc(Cl)cc2Cl)cc1	-0.246
CCN1CCN(C(c2cccs2)C(C)NC(=O)c2c(F)cccc2F)CC1 (stereo unspecified)	0.594
O=C(/C=C/c1ccc(Cl)cc1Cl)NCc1ccco1	-0.158

SMILES	z-score
CC(C)OCCCNCc1cccs1	0.695
CCOC(=O)C(NC(=O)Nc1ccccc1)(OCC)C(F)(F)F (stereo unspecified)	-0.207
COc1cccc(NC(=O)c2ccc(NC(C)=O)cc2)c1	-0.0341
Cc1ccc(CSC2=Nc3sccc3C3=NC(=O)CN23)cc1	-0.000655
COc1cc(-c2nc(-c3ccc4c(c3)-c3ccccc3S4(=O)=O)c(-c3ccccc3)[nH]2)cc(OC)c1O	0.525
COc1cc(/C=C2/C(=O)NN(c3cccc(F)c3)C2=O)ccc1OC(=O)c1ccco1	-0.208
O=C1CCC(C(=O)N(c2ccccc2)C2(C(=O)NC3CCCCC3)CCCCC2)N1 (stereo unspecified)	0.172
COc1ccc(C(C#N)N2CCOCC2)cc1 (stereo unspecified)	-0.0842
Cc1ccc(CSc2nc3ccccc3c(=O)n2CCCC(=O)NCc2ccco2)cc1	-0.176
Fc1ccccc1N1CCN(Cc2nc(-c3ccc(Cl)cc3Cl)no2)CC1	-0.127
CCCCN(CC)Cc1c(C)[nH]c2ccccc2c1=O	0.464
CCOC(=O)CC(=O)CSc1nc(-c2ccccc2)cc(-c2ccccc2)c1C#N	-0.0278
CCCOc1ccc2c(C)c(CC(=O)OC)c(=O)oc2c1	0.149
O=C(Nc1nc(-c2ccccc2)cs1)c1ccc2c(=O)n3c(nc2c1)CCCCC3	-0.159
O=C(CN1C(=O)C2C3C=CC(C3)C2C1=O)N1CC=C(c2ccccc2)CC1 (stereo unspecified)	-0.292
CCNC(=O)CC1SC(=Nc2ccc(C)cc2)N(CC)C1=O (stereo unspecified)	-0.996
CS(=O)(=O)N(Cc1ccco1)CC(O)Cn1cc(C=O)c2ccccc21 (stereo unspecified)	-0.256
O=C1CCCN1c1ccc(CNS(=O)(=O)c2ccc(F)cc2)cc1	0.357
CCn1nc(-c2ccccc2)c2nc3ccccc3nc21	-0.0247
Cc1cc(NCCCN2CCOCC2)n2nc(C)c(-c3ccccc3)c2n1	-0.314
C=CCn1c(SCC(=O)O)nnc1-c1ccc(C(C)(C)C)cc1	-0.337
C#CC(C)(CC)NC(=O)c1cc(OC)c(OC)c(OC)c1 (stereo unspecified)	0.11
CNC(=O)CN(c1ccc(OC)cc1)S(=O)(=O)c1ccc(F)cc1	-0.263
